The supplement of paper PMC11417369
This is one part of the list.

Each sequence was assayed on PfSIP2 AP2 domain 1 (GST-tagged) (assay: gcPBM binding intensity (ln(normalized median fluorescence intensity)); higher = stronger DNA binding).
Method in brief: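 Using an Agilent 4 × 180k array, primer-extended double-stranded 36-bp intergenic genomic probes and negative controls were exposed for 1 h to GST-fused P. falciparum DNA-binding domains expressed in E. coli. Binding was carried out in 1× PBS with 1% milk, 0.2 mg/ml BSA, 0.5% salmon testes DNA and 0.03% Triton X-100, and protein was detected with Alexa488 anti-GST antibody and a 488 nm scan. Binding intensity is the highest Masliner-normalised natural-log median intensity across replicate spots of either probe orientation.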

Sequence | gcPBM binding intensity (ln)
AAAAAAAAAAAAAAAACACACATATCTGTATTTATA [CACACA_site5760] | 7.51
CACACGTAAAAGTATAATATAAAAAAGGTATACACT [CACACA_negctrl_site127] | 6.92
TATTTAAAGATATATACACACATTTGATATTATTAT [CACACA_site6509] | 6.94
ACCTACATACATATGTGTACTTATTTGTATTCACTG [XGTACX_site7124] | 7.1
TTTATAAACAAATGAACACACAAACATATTTATATA [CACACA_site7478] | 6.88
ATAATATATGAAAAAACGATTTTTTCATTTTAAATA [XGTACX_negctrl_site146] | 6.85
TTTTAGCTATTTTAATATAATGAAGCAAAAAATAAA [TGCATGCA_negctrl_site576] | 6.9
ATAATAAATTCTACGCGTACAAAACCATGAACATTA [XGTACX_site7505] | 7.43
CTTTCAAAATTATTTATAGTATCTCATATTTTAGTA [XGTACX_negctrl_site72] | 6.74
TTTATTAATAAAAAGGTGCAATCAGGAAAAATTATC [GTGCAC_site9626] | 10.8
ATCCTTTATAAATAAGTGCATATAAAAAATAATATT [GTGCAC_site9759] | 8.72
ACACATATGTATATATGTACTTATATATATATATAT [XGTACX_site8632] | 9.2
AATTATATATAAAAAGTGCAAAACGATAATTCATCA | 8.26
TCATATTCCAAAAAAAAAAAAAAAAAAAAAAAAATA [CACACA_negctrl_site1293] | 6.94
AATATATATATATTATGTACACATAGAAATATATTA [XGTACX_site3874] | 7.25
ATGTATTACTTAAATATATGAAACATATTACTTTTA [CACACA_negctrl_site496] | 6.7
TTTTTTTTTTTTTTTTGTACTTATAAAATAACATGT [XGTACX_site134] | 7.18
TAATACTTAGAGAAAAGTACGTATGAACTTATGTAA [XGTACX_site5504] | 6.79
AGTCCTTACACATATATTAAATATGTGTATATATAT [XGTACX_negctrl_site336] | 7.72
TTTTGTTTAGTGTATTGTACAATATATCTTTATTTT [XGTACX_site5163] | 6.94
TATTAATACGGACACACACACACACTAGATAAAATA [CACACA_site4295] | 7.4
AAAAAAAAAAAAAAAAGTACATATATATATATAATT [XGTACX_site4437] | 7.54
TATTTAAATACTGACGCATGCATAAGGAGTAATAGT [TGCATGCA_site465] | 7.34
AAACATTTATGAAGGTGTACAAAAATGAATTAAAAA [XGTACX_site7035] | 6.87
TTTATAATAAAAAATACATGCAGTTATATATAATAA [TGCATGCA_site654] | 7.15
ATATTGAAAATTTGAAGTACATCTAAATATATTATT [XGTACX_site7817] | 6.93
TATATATAAATAAACACACACAAATATAATAAAAAA [CACACA_site3526] | 7.08
ATCCGTGTCTGAAATACACACATGACAATGTGAATG [CACACA_site6556] | 6.96

Sequence | gcPBM binding intensity (ln)
ATAATGTGTTTGGTATTCTTGATAGATAGTTTTGTG [CACACA_negctrl_site68] | 6.99
TATTTTACATAAAAGAAAAAAAAAAAAAAAAAAAAA [CACACA_negctrl_site1460] | 6.85
TATAAAAAAATAATAAAATAATAAAATATATAAATA [TGCATGCA_negctrl_site394] | 6.67
TTTTAAAAGGTAAAATGTACATATATAATATATACA [XGTACX_site1222] | 6.73
ATTCTATTATCCTTTGCACACAAAATAAATGAAAAA [CACACA_site3030] | 7.8
CCTTCCTTGAATTTTACATGCAAAAAATTATAAAAC [TGCATGCA_site663] | 7.2
TATATATTATATATTTGTACATATATATAAAAACTT [XGTACX_site449] | 7.2
TTTTTTCAATATTATATCCAAAAATATTTGTAAATA [TGCATGCA_negctrl_site596] | 6.67
TTATTAAAATATACATTTGAAAGTAATCTTATTTAA [XGTACX_negctrl_site431] | 6.64
AAAATATGTTAATATTGTACTTAAATAAAAAAAATA [XGTACX_site7152] | 6.96
ATTCTTAAAATAAAATGTACGAAAAAAAAAAAAAAA [XGTACX_site1657] | 7.33
ATACACATAACATATATATATATATATATATATATC [CACACA_negctrl_site278] | 8.08
TATATATATATAAACGCATGTAATTTATACACACAT [TGCATGCA_site946] | 9.17
ATCTTTCCTTTTGCATGTACATATGGAAATACTTTT [XGTACX_site6995] | 7.22
ATAATTAAGTTATGTGTGCACTGTTAAAAATAAATG | 10.4
TTTTATGATATTTACACACAAACGTGAGATAGCTCA [CACACA_site2311] | 7.01
AATATAATATCTATAATATAAAAAAAACAAAAAAAA [CACACA_negctrl_site875] | 6.92
ATATTTTTATATAATGAACACACATATTATATCATT [CACACA_site8446] | 6.95
TAAAAGGATACATATACACACATATATATATATATA [CACACA_site2791] | 9.82
TTCTTCAACAAAAAAATAAAAATAAAATAATAAAAA [GTGCAC_negctrl_site619] | 6.81
TTTAAAAAATTATATTCACACACATACACATATATA [CACACA_site8076] | 6.97
ATAAATCGATAAAATATATGCTACATGAATAAATAA [XGTACX_negctrl_site604] | 6.91
TACCAAAAAAAAAAAAATAAAAATAAAAAAAAAAAT [CACACA_negctrl_site1714] | 6.83
AAAATAAAAATAAAAGCACACATAAATATATATATA [CACACA_site8409] | 8.73
CTTTATTATAAGATTACACACATGTCTTATAATTTA [CACACA_site5715] | 6.81
TAAAAGTTTTTATACATACACACCTATAAATTAAGT [CACACA_site2446] | 7.21
TAACTATTATAAAAATGTACAAATGAAAATATTTTT [XGTACX_site1438] | 6.95
